Data reported in PubChem BioAssay AID485341 (National Center for Advancing Translational Sciences (NCATS), 2010).
Hit rate of the full screen: of about 330,000 compounds, about 1,700 (0.52%) were called active. Inconclusive results, whose numbers are uncertain, are shown with a selection of clear calls. Calls follow the shape of the dose curve; as a rule, active = well fitted inhibition curve with a large enough effect; inconclusive = small, poorly fitted or top-dose-only effect; inactive = no such curve, though single readings can be large or run the other way. Potencies beside an inconclusive call are fits to weak or partial responses and may not hold up.

target: Beta-lactamase (Escherichia coli (strain K12)) (UniProt P00811); assay: qHTS Inhibitors of AmpC Beta-Lactamase (assay without detergent); settings: AmpC nitrocefin hydrolysis, absorbance 480 nm, 0.0001% Triton; activity change, negative = inhibition: at 57.1 µM (top of the series) unless noted; also: nearly all actives have a fitted effect of over 20% in size
Method in brief: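 20 mM phosphate pH 7.0 + 0.01% (detergent screen) or 0.0001% Triton X-100; 5.3 nM AmpC reagent; cpd preinc 15 min RT; nitrocefin (800 uM stock) to start; A480 q20 s × 4 min; Activity was normalised to no-enzyme and no-compound control wells.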
Potency is read from the fitted curve at half-maximal effect; tags tell the direction and shape of the fitted curve.

Chain of UniProt P00811 (P00811 whole entry, looked up): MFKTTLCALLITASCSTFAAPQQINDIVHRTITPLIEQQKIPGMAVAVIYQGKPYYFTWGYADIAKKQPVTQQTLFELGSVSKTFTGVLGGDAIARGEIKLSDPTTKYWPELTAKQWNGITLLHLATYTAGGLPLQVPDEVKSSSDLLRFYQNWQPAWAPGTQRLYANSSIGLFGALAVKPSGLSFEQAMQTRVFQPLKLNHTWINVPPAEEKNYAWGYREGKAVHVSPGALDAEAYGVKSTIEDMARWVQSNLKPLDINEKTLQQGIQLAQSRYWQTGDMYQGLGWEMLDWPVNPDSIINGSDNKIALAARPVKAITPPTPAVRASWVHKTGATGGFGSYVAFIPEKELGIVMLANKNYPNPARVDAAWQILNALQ

Which “activity change, negative = inhibition” value does the source give for `COc1ccc2c(n1)Sc1nc3ccccc3nc1N2` here?
Its value is inactive: -21.5%.

With `Cc1ccnc(SCc2cc(=O)c(OC(=O)c3ccc(Cl)c([N+](=O)[O-])c3)co2)n1` as the molecule, how does the Potency read?
Its Potency is inconclusive: 20 µM [inhibitor, single point].

How did the “activity change, negative = inhibition” value turn out when `S=C(Nc1cc(Cl)cc(Cl)c1)N1CCCC1` was run?
Its value is inactive: -33.6%.

For `CCOC(=O)c1ccc(NC(=O)CSc2nnc(NC(=O)c3ccc(S(=O)(=O)N4CCOCC4)cc3)s2)cc1`, which Potency is on record?
Its Potency is inconclusive: 8.91 µM [inhibitor, single point].

With `COc1ccc(NS(=O)(=O)c2ccc3nc(COc4cccc5ccccc45)[nH]c3c2)cc1` as the molecule, how does the Potency read?
The Potency was active: 3.98 µM.

Which Potency does the source give for `COc1cccc(NC(=O)c2nc3nc(C)cc(C(F)F)n3n2)c1` here?
The Potency was active: 44.7 µM.

How did the “activity change, negative = inhibition” value turn out when `Cc1ccc(-c2ccc(CCC(=O)O)n2-c2ccc(O)cc2)cc1` was run?
Its value is inactive: -47.6%.

How did the “activity change, negative = inhibition” value turn out when `COc1ccccc1N1CCN(S(=O)(=O)c2ccc(-n3cnnn3)c(C)c2)CC1` was run?
The value was inactive: 31.8%.

How did the “activity change, negative = inhibition” value turn out when `CCOc1cc(C(=O)OCC(=O)c2cc(C)n(CC3CCCO3)c2C)ccc1OCC(=O)N1CCOCC1` (configuration not stated) was run?
Its value is inactive: 226%.

With `Cc1cccc(NC(=O)C[n+]2ccccc2)c1` as the molecule, how does the “activity change, negative = inhibition” value read?
The value was inactive: -10.7%.

Which Potency does the source give for `C/C(=N\NC(=O)c1ccc(NS(=O)(=O)c2cccs2)cc1)c1ccc(Cl)cc1` here?
Its Potency is inconclusive: 28.2 µM [inhibitor, single point].

How did the Potency turn out when `Cc1ccccc1OCc1nnc2n1CC(C)S2` (configuration not stated) was run?
The Potency was inconclusive: 0.316 µM [inhibitor, full curve, poor fit].

`O=C(c1ccc2nc(N3CCCCC3)sc2c1)N1CCN(Cc2ccc3c(c2)OCO3)CC1` was tested. Which Potency did it give?
The Potency was active: 31.6 µM.

How did the Potency turn out when `CCOC(=O)N1CCc2c(sc3c2c(=O)n(Cc2ccccc2)c(=O)n3Cc2cccc(C)c2)C1` was run?
The Potency was inconclusive: 4.47 µM [inhibitor, full curve, poor fit].

Which Potency does the source give for `O=C(CN1C(=O)NC2(CCCC2)C1=O)Nc1cc(C(F)(F)F)ccc1N1CCCCC1` here?
Its Potency is active: 35.5 µM.

How did the Potency turn out when `CC1(C(=O)OCC(=O)Nc2nc(-c3ccc(F)c(F)c3)cs2)CC1(Cl)Cl` (configuration not stated) was run?
The Potency was inconclusive: 3.55 µM [inhibitor, partial curve].

With `COc1cc2c(cc1OC)C(C)N(C(=O)Cn1ncc3c1-c1cc(C)ccc1OC3)CC2` (configuration not stated) as the molecule, how does the Potency read?
Its Potency is inconclusive: 10 µM [inhibitor, full curve, poor fit].

`O=C(Nc1ccc2c(c1)OCCO2)C1CC1c1ccccc1` (configuration not stated) was tested. Which Potency did it give?
Its Potency is inconclusive: 17.8 µM [inhibitor, partial curve].

For `CCOc1ccccc1N1CCN(S(=O)(=O)c2cccs2)CC1`, which Potency is on record?
The Potency was inconclusive: 6.31 µM [inhibitor, single point].

Which Potency does the source give for `C/C(=N\NC(=O)c1nn(C)c(C)c1Br)c1cccc(NC(=O)c2ccoc2C)c1` here?
Its Potency is active: 31.6 µM.

How did the “activity change, negative = inhibition” value turn out when `CC(=O)SC1CC(=O)N(c2c(C)cccc2C)C1=O` (configuration not stated) was run?
The value was inactive: -19.9%.

For `O=C(/C(=N\Nc1ccc(Br)cc1)Sc1nnnn1-c1ccccc1)c1ccccc1`, which Potency is on record?
Its Potency is inconclusive: 1.41 µM [inhibitor, full curve].

How did the Potency turn out when `CC(=O)n1c2c(c3ccccc31)OC(N)=C(C#N)C2c1ccc(C(C)C)cc1` (configuration not stated) was run?
The Potency was inconclusive: 7.08 µM [inhibitor, single point].

With `O=C(Nc1cccnc1)c1ccc(COCC(F)(F)F)cc1` as the molecule, how does the Potency read?
The Potency was inconclusive: 6.31 µM [inhibitor, single point].

Which Potency does the source give for `NS(=O)(=O)c1ccc(N2N=C(c3ccc(Br)cc3)CC2c2ccc(F)cc2)cc1` (configuration not stated) here?
The Potency was active: 5.62 µM.

Which Potency does the source give for `CCCc1cc(C(=O)NCCc2ccccc2)no1` here?
Its Potency is active: 11.2 µM.

Which “activity change, negative = inhibition” value does the source give for `CN1CCN(C(=O)c2ccc3c(c2)OCCO3)CC1` here?
Its value is inactive: -11.7%.

Which Potency does the source give for `O=C(NNC(=O)c1sc2cccc(Cl)c2c1Cl)Nc1ccccc1` here?
The Potency was inconclusive: 10 µM [inhibitor, partial curve].

Which Potency does the source give for `CCn1c(SCC(=O)Nc2ccc3c(c2)OCO3)nc2c(c1=O)SC(C)C2` (configuration not stated) here?
The Potency was active: 2.82 µM.

With `Cc1ccc(NC(=O)c2cccc(S(=O)(=O)N(C)C3CCCCC3)c2)nc1` as the molecule, how does the Potency read?
Its Potency is inconclusive: 28.2 µM [inhibitor, single point].

With `Cc1ccc(NC(=S)C2=C(O)c3ccccc3N(C)S2(=O)=O)cc1` as the molecule, how does the Potency read?
Its Potency is inconclusive: 7.08 µM [inhibitor, single point].

For `CCOc1cc(/C=C2/SC(=S)N(C)C2=O)ccc1Oc1ccc([N+](=O)[O-])cc1[N+](=O)[O-]`, which Potency is on record?
The Potency was inconclusive: 0.158 µM [inhibitor, full curve, poor fit].

For `Cc1cc(O)c(C(C)C)cc1NC(=O)Nc1cccc2ccccc12`, which Potency is on record?
Its Potency is inconclusive: 39.8 µM [inhibitor, single point].

`O=C1c2ccccc2C(=O)N1Cc1cc(-c2ccccc2)no1` was tested. Which Potency did it give?
Its Potency is inconclusive: 5.01 µM [inhibitor, single point].

For `O=C(N/N=C/c1ccc(Br)s1)c1c[nH]c2ccccc12`, which Potency is on record?
Its Potency is active: 25.1 µM.

With `COC(=O)C1=C(C)NC(=S)NC1c1ccc(-c2cc(Cl)ccc2Cl)o1` (configuration not stated) as the molecule, how does the Potency read?
The Potency was inconclusive: 5.62 µM [inhibitor, partial curve].

How did the “activity change, negative = inhibition” value turn out when `COc1ccc(CCNc2oc(Cc3cccc4ccccc34)nc2C#N)cc1OC` was run?
Its value is inactive: 93.9%.

How did the Potency turn out when `O=C(CSc1ccc2nnc(-c3ccccc3)n2n1)NCc1ccc2c(c1)OCO2` was run?
Its Potency is inconclusive: 0.562 µM [inhibitor, full curve, poor fit].

How did the Potency turn out when `O=C(CSCc1ccccc1)Nc1cc([N+](=O)[O-])ccc1F` was run?
The Potency was inconclusive: 4.47 µM [inhibitor, partial curve, poor fit].

How did the “activity change, negative = inhibition” value turn out when `CSCC(=O)N1CCC(n2nccc2NC(=O)c2ccc3c(c2)OCO3)CC1` was run?
Its value is inactive: -10.2%.

How did the “activity change, negative = inhibition” value turn out when `COCCNC(=O)Nc1ccc2nc(-c3cccs3)c(-c3cccs3)nc2c1` was run?
The value was inactive: 67.6%.

With `COc1cccc(OCc2nc(-c3cccc([N+](=O)[O-])c3)no2)c1` as the molecule, how does the “activity change, negative = inhibition” value read?
Its value is inactive: -24.9%.

`O=C(Cn1c(/C=C/c2ccccc2)nc2ccccc21)Nc1ccc(F)cc1` was tested. Which Potency did it give?
The Potency was inconclusive: 10 µM [inhibitor, partial curve].

`OC(CNCC1CCCO1)Cn1c2ccc(Cl)cc2c2cc(Cl)ccc21` (configuration not stated) was tested. Which “activity change, negative = inhibition” value did it give?
Its value is inactive: 151%.

How did the Potency turn out when `COC(=O)Cn1c(=NC(=O)C(C)(C)C)sc2c(C)cc(C)cc21` was run?
Its Potency is inconclusive: 15.8 µM [inhibitor, partial curve, poor fit].

How did the Potency turn out when `CC1=C(C(=O)Nc2ccccc2)C(c2cccs2)n2nnnc2N1` (configuration not stated) was run?
Its Potency is inconclusive: 6.31 µM [inhibitor, single point].

`Cc1cc(SCc2cc(=O)[nH]c3ccccc23)nc2ccccc12` was tested. Which Potency did it give?
The Potency was inconclusive: 15.8 µM [inhibitor, partial curve].

`CN(C)c1ccc(/C=C/C(=O)c2ccccc2)cc1[N+](=O)[O-]` was tested. Which “activity change, negative = inhibition” value did it give?
The value was inactive: -29.2%.

With `COc1ccc(-c2c(C#N)c(N)n(N)c(=O)c2C#N)cc1Cl` as the molecule, how does the Potency read?
Its Potency is inconclusive: 35.5 µM [inhibitor, single point].

Which “activity change, negative = inhibition” value does the source give for `CCCC1Cc2nc(Cl)c(C#N)cc2CO1` (configuration not stated) here?
Its value is inactive: -35.1%.

How did the Potency turn out when `CC12CCC(=O)N1C(C(=O)N1CCN(S(=O)(=O)c3cccc(C(F)(F)F)c3)CC1)CS2` (configuration not stated) was run?
The Potency was inconclusive: 31.6 µM [inhibitor, single point].

Which Potency does the source give for `Cc1nn(C)c(Oc2ccc(Cl)cc2)c1C(=O)O` here?
The Potency was inconclusive: 3.98 µM [inhibitor, single point].

How did the Potency turn out when `COc1ccc(S(=O)(=O)N2CCC(C(=O)NC3CCCCC3)CC2)cc1OC` was run?
The Potency was inconclusive: 39.8 µM [inhibitor, single point].

Which “activity change, negative = inhibition” value does the source give for `O=C(Nc1cccc([N+](=O)[O-])c1)c1ccc2nsnc2c1` here?
Its value is inactive: -38.1%.

Which “activity change, negative = inhibition” value does the source give for `O=C(Nc1ccc(OCC(F)(F)C(F)F)c(C(F)(F)F)c1)c1ccccc1O` here?
Its value is inactive: -35.1%.

`CCOC(=O)C1=C(C)N=C2SC(C)C(=O)N2C1/C=C/c1ccccc1OC` (configuration not stated) was tested. Which Potency did it give?
Its Potency is inconclusive: 28.2 µM [inhibitor, single point].

`CCOc1cc(/C=N/NC(=O)c2cc(C)n(-c3ccc(F)cc3)c2C)ccc1O` was tested. Which Potency did it give?
Its Potency is inconclusive: 15.8 µM [inhibitor, partial curve].

For `CNc1ccc(S(=O)(=O)NCC(=O)OCC(=O)Nc2cccc(Cl)c2Cl)cc1[N+](=O)[O-]`, which Potency is on record?
Its Potency is active: 25.1 µM.

For `Cc1ccc2nc3sc(C(=O)Nc4ccc(N5CCOCC5)cc4)c(N)c3cc2c1`, which Potency is on record?
Its Potency is active: 0.355 µM.

`CCOC(=O)c1c(O)c2ccccc2oc1=O` was tested. Which Potency did it give?
Its Potency is inconclusive: 8.91 µM [inhibitor, partial curve].

How did the “activity change, negative = inhibition” value turn out when `COCCNC(=O)c1cc2c(=O)n3cccc(C)c3nc2n(Cc2ccncc2)c1=N` was run?
Its value is inactive: -14.9%.

Which Potency does the source give for `C/C(=N\NC(=O)c1ccccc1O)c1c(O)n(Cc2ccccc2)c(=O)[nH]c1=O` here?
The Potency was inconclusive: 8.91 µM [inhibitor, full curve, poor fit].

For `CCN(CC)c1ccc(N=C2C(=O)Nc3ccccc32)cc1`, which “activity change, negative = inhibition” value is on record?
Its value is inactive: -7.96%.

Which “activity change, negative = inhibition” value does the source give for `CCOc1ccc(C(=O)NC(=S)Nc2cccnc2)cc1` here?
The value was inactive: -10.1%.

Which Potency does the source give for `Cc1cccc(Nc2nnc(SCC(=O)Nc3cccc(S(=O)(=O)N4CCCCC4)c3)s2)c1` here?
The Potency was inconclusive: 2.24 µM [inhibitor, full curve].

`O=C(Nc1ccc2c(c1)OCO2)C1CCCN(S(=O)(=O)c2cccs2)C1` (configuration not stated) was tested. Which Potency did it give?
The Potency was inconclusive: 20 µM [inhibitor, single point].

Which “activity change, negative = inhibition” value does the source give for `O=C(CCC(=O)Nc1ccccc1)N/N=C/C=C/c1ccccc1` here?
Its value is inactive: -52.5%.

How did the Potency turn out when `Nc1cc(-c2ccc(Br)cc2)nn1S(=O)(=O)c1ccccc1` was run?
The Potency was inconclusive: 35.5 µM [inhibitor, single point].

With `CCOC(=O)c1ccc(NS(=O)(=O)c2cc3c4c(c2)CCN4C(=O)CC3)cc1` as the molecule, how does the Potency read?
The Potency was inconclusive: 31.6 µM [inhibitor, single point].

With `COc1ccc(/C=C/C2=CC(C)(C)NC(=S)N2)cc1` as the molecule, how does the Potency read?
Its Potency is active: 8.91 µM.

For `CCOc1ccccc1NC(=O)NC1CC2CCCC(C1)N2Cc1nnnn1CCc1ccccc1` (configuration not stated), which Potency is on record?
Its Potency is inconclusive: 7.08 µM [inhibitor, single point].

How did the Potency turn out when `CCc1sc(/C=C(/C#N)C(N)=S)cc1[N+](=O)[O-]` was run?
Its Potency is inconclusive: 28.2 µM [inhibitor, single point].
